According to the supplement of paper PMC8728848:
This is one part of the list.

Assays:
Experiment in all cases: glycan array binding signal (z-score within array); higher = stronger binding
Conditions in all cases: glycan notation: IUPAC condensed, linker removed
Neu5Ac(a2-8)Neu5Ac = molecular target: Neu5Ac(a2-8)Neu5Ac
Method in brief: (§1)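 From the Consortium for Functional Glycomics database, 3228 arrays were curated, keeping only those whose protein sequence was available. Binding is given as a within-array Z-score averaged across arrays sharing a protein sequence and across linkers. Negative Z-scores can be read as non-binding.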

[1] = molecular target: Neu5Ac(a2-8)Neu5Ac(a2-3)Gal(b1-3)GalNAc(b1-4)[Neu5Ac(a2-3)]Gal(b1-4)Glc
Method in brief: as §1

[2] = molecular target: Neu5Ac(a2-8)Neu5Ac(a2-3)Gal(b1-3)GalNAc(b1-4)[Neu5Ac(a2-8)Neu5Ac(a2-3)]Gal(b1-4)Glc
Method in brief: as §1

[3] = molecular target: Neu5Ac(a2-8)Neu5Ac(a2-3)Gal(b1-4)Glc
Method in brief: as §1

[4] = molecular target: Neu5Ac(a2-8)Neu5Ac(a2-3)Gal(b1-4)GlcNAc
Method in brief: as §1

[5] = molecular target: Neu5Ac(a2-8)Neu5Ac(a2-3)[Gal(b1-3)GalNAc(b1-4)]Gal(b1-4)Glc
Method in brief: as §1

[6] = molecular target: Neu5Ac(a2-8)Neu5Ac(a2-3)[GalNAc(b1-4)]Gal(b1-4)Glc
Method in brief: as §1

[7] = molecular target: Neu5Ac(a2-8)Neu5Ac(a2-8)Neu5Ac
Method in brief: as §1

[8] = molecular target: Neu5Ac(a2-8)Neu5Ac(a2-8)Neu5Ac(a2-3)Gal(b1-4)Glc
Method in brief: as §1

[9] = molecular target: Neu5Ac(a2-8)Neu5Ac(a2-8)Neu5Ac(a2-3)[Gal(b1-3)GalNAc(b1-4)]Gal(b1-4)Glc
Method in brief: as §1

[10] = molecular target: Neu5Ac(a2-8)Neu5Ac(a2-8)Neu5Ac(a2-3)[GalNAc(b1-4)]Gal(b1-4)Glc
Method in brief: as §1

[11] = molecular target: Neu5Ac(a2-8)Neu5Ac(a2-8)Neu5Ac(a2-8)Neu5Ac(a2-3)[GalNAc(b1-4)]Gal(b1-4)Glc
Method in brief: as §1

[12] = molecular target: Neu5Ac(a2-8)Neu5Gc(a2-3)Gal(b1-4)GlcNAc
Method in brief: as §1

[13] = molecular target: Neu5Ac(b2-6)Gal(b1-4)GlcNAc
Method in brief: as §1

Neu5Ac(b2-6)GalNAc = molecular target: Neu5Ac(b2-6)GalNAc
Method in brief: as §1

[14] = molecular target: Neu5Ac9Ac(a2-3)Gal(b1-3)GlcNAc
Method in brief: as §1

[15] = molecular target: Neu5Ac9Ac(a2-3)Gal(b1-4)GlcNAc
Method in brief: as §1

[16] = molecular target: Neu5Ac9Ac(a2-6)Gal(b1-4)GlcNAc
Method in brief: as §1

[17] = molecular target: Neu5Gc(a2-3)Gal(b1-3)GlcNAc
Method in brief: as §1

[18] = molecular target: Neu5Gc(a2-3)Gal(b1-3)[Fuc(a1-4)]GlcNAc
Method in brief: as §1

Neu5Gc(a2-3)Gal(b1-4)Glc = molecular target: Neu5Gc(a2-3)Gal(b1-4)Glc
Method in brief: as §1

[19] = molecular target: Neu5Gc(a2-3)Gal(b1-4)GlcNAc
Method in brief: as §1

[20] = molecular target: Neu5Gc(a2-3)Gal(b1-4)GlcNAc(b1-3)Gal(b1-4)GlcNAc(b1-2)Man(a1-3)[Neu5Gc(a2-3)Gal(b1-4)GlcNAc(b1-3)Gal(b1-4)GlcNAc(b1-2)Man(a1-6)]Man(b1-4)GlcNAc(b1-4)GlcNAc
Method in brief: as §1

[21] = molecular target: Neu5Gc(a2-3)Gal(b1-4)[Fuc(a1-3)]GlcNAc
Method in brief: as §1

[22] = molecular target: Neu5Gc(a2-6)Gal(b1-4)GlcNAc
Method in brief: as §1

Neu5Gc(a2-6)GalNAc = molecular target: Neu5Gc(a2-6)GalNAc
Method in brief: as §1

[23] = molecular target: Neu5Gc(a2-8)Neu5Ac(a2-3)Gal(b1-4)GlcNAc
Method in brief: as §1

[24] = molecular target: Neu5Gc(a2-8)Neu5Gc(a2-3)Gal(b1-4)GlcNAc
Method in brief: as §1

[25] = molecular target: Neu5Gc(a2-8)Neu5Gc(a2-3)Gal(b1-4)GlcNAc(b1-3)Gal(b1-4)GlcNAc
Method in brief: as §1

[26] = molecular target: Neu5Gc(a2-8)Neu5Gc(a2-6)Gal(b1-4)GlcNAc
Method in brief: as §1

[27] = molecular target: Neu5Gc(b2-6)Gal(b1-4)GlcNAc
Method in brief: as §1

B1: Epa22 (Candida glabrata) (protein)
chain: MGSSHHHHHHSSGLVPRGSHMKRALSSQNPFGYPIGCSPQSTNVIPGLTMELYSYPIVSGTPPNCYDASYVDPEYPRTGYLKRKMIGKSTGVTGSLNYKFSVEKACMVKYGNLPAGYNYNEPLTVSNFTMLLYGYFKPQTSGIHTFFVNADDLLYINFGAGNAFDCCKREDSKFKLGEYVAYDIWHVDSSKNKVSLNLEKDVYYPIRMFFNNIGKDSSLDLSFSVNGAVEHITDFSGYLYSVPDQPDACPAPIGYDTTCK
- glycan array binding signal (z-score) (Neu5Ac(a2-8)Neu5Ac): -0.352
- glycan array binding signal (z-score) [1]: -0.322
- glycan array binding signal (z-score) [2]: -0.003
- glycan array binding signal (z-score) [3]: -0.157
- glycan array binding signal (z-score) [4]: -0.191
- glycan array binding signal (z-score) [5]: -0.345
- glycan array binding signal (z-score) [6]: -0.322
- glycan array binding signal (z-score) [7]: -0.353
- glycan array binding signal (z-score) [8]: -0.38
- glycan array binding signal (z-score) [9]: -0.369
- glycan array binding signal (z-score) [10]: -0.401
- glycan array binding signal (z-score) [11]: -0.364
- glycan array binding signal (z-score) [12]: -0.344
- glycan array binding signal (z-score) [13]: -0.428
- glycan array binding signal (z-score) (Neu5Ac(b2-6)GalNAc): -0.413
- glycan array binding signal (z-score) [14]: -0.366
- glycan array binding signal (z-score) [15]: -0.368
- glycan array binding signal (z-score) [16]: -0.23
- glycan array binding signal (z-score) [17]: -0.393
- glycan array binding signal (z-score) [18]: -0.403
- glycan array binding signal (z-score) (Neu5Gc(a2-3)Gal(b1-4)Glc): -0.398
- glycan array binding signal (z-score) [19]: -0.411
- glycan array binding signal (z-score) [20]: -0.398
- glycan array binding signal (z-score) [21]: -0.382
- glycan array binding signal (z-score) [22]: -0.332
- glycan array binding signal (z-score) (Neu5Gc(a2-6)GalNAc): -0.418
- glycan array binding signal (z-score) [23]: -0.251
- glycan array binding signal (z-score) [24]: -0.296
- glycan array binding signal (z-score) [25]: -0.313
- glycan array binding signal (z-score) [26]: -0.224
- glycan array binding signal (z-score) [27]: -0.282
